{"source": "the supplement of paper PMC3334620", "note": "The full ranking holds about 33,000 sequences; the median of “E-score (-0.5 to 0.5)” is about -0.043, and the highest 2% start at about 0.37. This is one part of the list.", "data": [{"biological_target": "T1, Upc2 (UniProt Q12151)", "T1 sequence": "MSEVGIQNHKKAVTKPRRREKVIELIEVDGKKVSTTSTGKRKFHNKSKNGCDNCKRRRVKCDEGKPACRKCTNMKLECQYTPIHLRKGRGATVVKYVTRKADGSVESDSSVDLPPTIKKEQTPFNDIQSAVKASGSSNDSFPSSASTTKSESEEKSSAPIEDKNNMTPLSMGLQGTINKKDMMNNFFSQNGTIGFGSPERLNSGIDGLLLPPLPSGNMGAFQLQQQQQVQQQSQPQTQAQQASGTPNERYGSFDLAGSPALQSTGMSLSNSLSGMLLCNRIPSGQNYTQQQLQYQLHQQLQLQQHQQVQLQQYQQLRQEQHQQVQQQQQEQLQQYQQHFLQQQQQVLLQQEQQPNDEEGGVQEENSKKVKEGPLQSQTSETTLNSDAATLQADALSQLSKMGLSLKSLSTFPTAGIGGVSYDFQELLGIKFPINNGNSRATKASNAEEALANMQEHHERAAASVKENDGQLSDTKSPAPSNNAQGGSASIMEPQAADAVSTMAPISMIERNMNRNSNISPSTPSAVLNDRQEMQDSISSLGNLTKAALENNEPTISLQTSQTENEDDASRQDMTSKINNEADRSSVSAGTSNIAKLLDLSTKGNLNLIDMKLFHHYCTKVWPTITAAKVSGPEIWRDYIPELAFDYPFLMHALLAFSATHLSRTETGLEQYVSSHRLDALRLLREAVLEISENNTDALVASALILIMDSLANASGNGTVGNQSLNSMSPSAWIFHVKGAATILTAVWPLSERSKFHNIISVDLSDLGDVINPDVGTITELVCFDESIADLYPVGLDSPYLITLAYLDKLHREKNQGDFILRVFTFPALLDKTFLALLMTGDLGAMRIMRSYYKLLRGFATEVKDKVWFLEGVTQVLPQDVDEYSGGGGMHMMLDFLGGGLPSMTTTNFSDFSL", "test": "PBM E-score (8-mer binding enrichment) (E-score (-0.5 to 0.5)); higher = stronger / more preferred TF binding; most listed sequences are background and not binding sites", "conditions": "protein concentration: 200 nM; construct: GST-full length", "method": "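Universal 'all 10-mer' protein binding microarrays (Agilent AMADID 015681) probed with GST-tagged S. cerevisiae TFs (full-length or DBD) made by in vitro transcription/translation (PURExpress), about 100-200 nM. Bound TF was detected with fluorescent anti-GST. Each ungapped 8-mer (which stands for itself and its reverse complement) is scored by the PBM enrichment score (E-score), a modified Wilcoxon-Mann-Whitney statistic from -0.5 to +0.5, computed with the Universal PBM Analysis Suite. Scale: above 0.35 generally sequence-specific binding.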", "values": [{"sequence": "GAGTGAGC", "PBM E-score": -0.106}, {"sequence": "GGGAACAA", "PBM E-score": 0.0652}, {"sequence": "CGAGGGAA", "PBM E-score": 0.135}, {"sequence": "CTATTGGC", "PBM E-score": -0.183}, {"sequence": "AGTCCGCG", "PBM E-score": -0.0966}, {"sequence": "AAGGTCAG", "PBM E-score": -0.239}, {"sequence": "CCCACGAC", "PBM E-score": -0.225}, {"sequence": "TCGGGGAA", "PBM E-score": 0.014}, {"sequence": "CGGGTTAG", "PBM E-score": 0.0259}, {"sequence": "AATTGAGC", "PBM E-score": -0.0691}, {"sequence": "CCAACTCC", "PBM E-score": -0.0247}, {"sequence": "ACGAAGAT", "PBM E-score": 0.349}, {"sequence": "ACACTGTC", "PBM E-score": -0.101}, {"sequence": "AAGCACTC", "PBM E-score": -0.164}, {"sequence": "GCGGAGCA", "PBM E-score": -0.131}, {"sequence": "AATTTCAC", "PBM E-score": -0.136}, {"sequence": "ACTCGTCT", "PBM E-score": 0.167}, {"sequence": "ACATCTTA", "PBM E-score": -0.0462}, {"sequence": "CGCATAGC", "PBM E-score": 0.265}, {"sequence": "GGACATCC", "PBM E-score": -0.155}, {"sequence": "CCTTGCGC", "PBM E-score": -0.219}, {"sequence": "CCTACACG", "PBM E-score": 0.0945}, {"sequence": "ACAGCAGA", "PBM E-score": 0.0794}, {"sequence": "CCAAAGGG", "PBM E-score": -0.307}, {"sequence": "ATGTTGAC", "PBM E-score": -0.0223}, {"sequence": "GAGTCTAC", "PBM E-score": 0.00323}, {"sequence": "CAGGGGGA", "PBM E-score": -0.377}, {"sequence": "GCTTCCCA", "PBM E-score": 0.094}, {"sequence": "CTATCAAC", "PBM E-score": 0.0734}, {"sequence": "TTAATGAA", "PBM E-score": 0.0861}, {"sequence": "CTATGCTA", "PBM E-score": -0.168}, {"sequence": "ATATCGAT", "PBM E-score": 0.052}, {"sequence": "AAAGCTTC", "PBM E-score": -0.0314}, {"sequence": "ATAAATTA", "PBM E-score": 0.312}, {"sequence": "GTTGACGA", "PBM E-score": -0.031}, {"sequence": "CACCATAC", "PBM E-score": 0.132}, {"sequence": "ACCAGTCA", "PBM E-score": -0.194}, {"sequence": "CAGTGCAA", "PBM E-score": -0.00228}, {"sequence": "GTTTCTAA", "PBM E-score": 0.206}, {"sequence": "CAAATTTG", "PBM E-score": 0.0684}, {"sequence": "TACACCCA", "PBM E-score": 0.0255}, {"sequence": "GGCGTTTA", "PBM E-score": 0.378}, {"sequence": "GTTTACTA", "PBM E-score": 0.224}, {"sequence": "AAGTTAAC", "PBM E-score": 0.204}, {"sequence": "CGTATGTC", "PBM E-score": 0.353}, {"sequence": "ACTATCTC", "PBM E-score": 0.0406}, {"sequence": "CCAATCCC", "PBM E-score": -0.13}, {"sequence": "CAACTCTC", "PBM E-score": -0.179}, {"sequence": "CCACTCTC", "PBM E-score": -0.106}, {"sequence": "CCGACCAA", "PBM E-score": 0.091}, {"sequence": "GGGCAGCA", "PBM E-score": -0.226}, {"sequence": "AGGCTCGA", "PBM E-score": -0.00658}, {"sequence": "AGCCCATC", "PBM E-score": 0.0339}, {"sequence": "ACGACACT", "PBM E-score": 0.337}, {"sequence": "ACAGTCGC", "PBM E-score": 0.0291}, {"sequence": "ACGAGTGG", "PBM E-score": 0.295}, {"sequence": "AGTGATTG", "PBM E-score": -0.222}, {"sequence": "CCGGTGGA", "PBM E-score": 0.0139}, {"sequence": "ATTCTAGA", "PBM E-score": -0.142}, {"sequence": "ACGTCGTA", "PBM E-score": 0.458}, {"sequence": "GCAAGACA", "PBM E-score": -0.136}, {"sequence": "GTTAATAA", "PBM E-score": 0.0665}, {"sequence": "CTGTCGAC", "PBM E-score": -0.0395}, {"sequence": "CCACGGCG", "PBM E-score": -0.0352}, {"sequence": "TGGCCCAA", "PBM E-score": -0.151}, {"sequence": "CCAGGTCG", "PBM E-score": 0.0394}, {"sequence": "AAGGTAGG", "PBM E-score": -0.138}, {"sequence": "CGATCATA", "PBM E-score": 0.0929}, {"sequence": "GAGGAAAA", "PBM E-score": 0.0211}, {"sequence": "AACGGTCT", "PBM E-score": 0.146}, {"sequence": "AAACACTG", "PBM E-score": -0.0296}, {"sequence": "CAGGTCAA", "PBM E-score": -0.178}, {"sequence": "GGACGCCC", "PBM E-score": -0.129}, {"sequence": "TGGTGAAA", "PBM E-score": -0.0343}, {"sequence": "CAGGCAAG", "PBM E-score": -0.298}, {"sequence": "CTGCAGCA", "PBM E-score": -0.0875}, {"sequence": "CGCCGCCC", "PBM E-score": -0.0467}, {"sequence": "CTTCAGTA", "PBM E-score": -0.0281}, {"sequence": "TAAAACCA", "PBM E-score": 0.0273}, {"sequence": "ACGCGCTA", "PBM E-score": 0.251}, {"sequence": "ATCTGCGC", "PBM E-score": -0.106}, {"sequence": "GCATGCAA", "PBM E-score": 0.165}, {"sequence": "GGTCAGGA", "PBM E-score": -0.205}, {"sequence": "GGATAGCA", "PBM E-score": 0.147}, {"sequence": "CTTCCTAC", "PBM E-score": -0.272}, {"sequence": "CTGTTAGA", "PBM E-score": -0.122}]}]}
